Experimental data taken from ChEMBL document CHEMBL4888484, “Replenishing the malaria drug discovery pipeline: Screening and hit evaluation of the MMV Hit Generation Library 1 (HGL1) against asexual blood stage Plasmodium falciparum ,using a nano luciferase reporter read-out” (2022).
The whole screen tested about 150,000 compounds, of which about 540 (0.36%) showed an effect of 50% or more. The list shows a part of the results.

These compounds were tested on Plasmodium falciparum (assay: Primary screen in NF54 nanoGlo assay, in single point, at 2uM, 72h; a lower Z score goes with more inhibition). Settings: timepoint 72 hour.
Format: functional, Erythrocyte

SMILES	% Inhibition [%]	Z score
COc1cccc(-c2nc(NCc3cccnc3)nc3nn(-c4cccc(C)c4)c(N)c23)c1	-1	0.08
CC(C)C(C)(NC(=O)C1CCCO1)c1ccc(Br)cc1 (stereo not given)	-5	1.07
CN(Cc1cnccn1)c1cc(C2CC(O)C2)nc(N)n1 (stereo not given)	-1	0.11
Cc1cccc(CNC(=O)c2ccc(-c3ccsc3)nc2)c1	3	-0.35
CCc1nc([C@H](C)NC(=O)NC2CCN(c3cc(C)nc(C)n3)CC2)cs1	5	-0.49
Cc1ccccc1-c1nc(C)c(CNC(=O)COc2cccc(C(F)(F)F)c2)s1	-4	0.76
CCN(CC(F)(F)F)C(=O)C(=O)Nc1cc(C)ccc1F	5	-0.61
CC1(C)COC(=O)[C@H]1OCN1CCCC1=O	42	-5.43
CN(CCN(C)C1CCCC1)C(=O)[C@@H](O)Cc1ccccc1	-3	0.44
OC1CCC(NCc2cc(Br)c3c(c2)OCO3)CC1 (stereo not given)	-6	1.23
COc1ccccc1C(C)CC(=O)N1CCCC[C@@H]1C(=O)O (stereo not given in full)	8	-1.09
COc1cc2c(cc1CNc1cc([C@H]3CCOC3)nc(N)n1)OCCO2	0	-0.04
NC1CC(c2cc(N3CCC(C(=O)NC4CCCCCC4)CC3)ncn2)C1 (stereo not given)	-3	0.72
CCCCNCCOc1ccc(Cl)cc1	0	0.05
O=C(C[C@@H](c1ccccc1O)N1CCCCC1)N1CCCCC1	-6	0.93
Cc1ncn(CC(=O)N2CCC[C@H](c3ccn(C)n3)C2)c(=O)c1C	5	-0.57
CCCN1CC2(CCN(Cc3cc(C)cc(C)c3)CC2)C[C@H]1C(=O)O	-2	0.32
COc1cccc(NC(=O)NC2CCC(c3n[nH]c(N)n3)CC2)c1 (stereo not given)	-6	0.72
COC(=O)[C@@H](C)CN(C)c1ncc(Cl)cn1	-8	1.08
COc1ccccc1C(=O)Nc1ccc(-c2cc[nH]n2)cc1	-5	1.01
O=C(Nc1ccccc1)OC1CCCC(NS(=O)(=O)Cc2ccccc2)C1 (stereo not given)	-19	3.67
CCOC(=O)c1cnc2ccnn2c1C1CC1	32	-3.67
CC[C@H]1CN(C)CCN1c1cc(-c2ccccc2)nc2ncnn12	-7	1.39
CC(C)OC1CC(N2CC[C@H](NC(=O)NC3CC3)C2)C1 (stereo not given in full)	7	-1.11
c1cncc(Oc2cccc(OCc3noc4c3CCCC4)c2)c1	-5	0.68
CO[C@@H]1C[C@@H](c2ncc[nH]2)N(C(=O)c2cccc(F)c2O)C1	-10	1
COc1cccc(-c2noc(-c3ccoc3)n2)c1	-8	0.98
Cc1ccc(/N=C2/C(=N\c3ccc(C)cc3)N(c3ccccc3)CCCN2c2ccccc2)cc1	-9	1.6

SMILES	% Inhibition [%]	Z score
c1ccc([C@@H]2NCCc3c2[nH]c2ccccc32)cc1	0	0.05
O=c1cccc(-c2nc(-c3ccco3)no2)[nH]1	-3	0.25
O=S(=O)(NC1(Cc2ccccc2)CC1)N1CCCC1	0	-0.08
CC(C)=CCN1C(=O)[C@@H]2CC[C@H]1CN(C(=O)c1nc3ncccn3n1)C2	-1	0.21
Cn1cc([C@@H]2CCCN2c2cccc(C(=O)O)n2)cn1	-2	0.39
Nc1nc(CNCc2ccc3cccc(Cl)c3n2)cs1	6	-0.76
CC1CN(Cc2ccccc2)CC1NC(=O)c1ccon1 (stereo not given)	-1	0.1
C=CCn1ncc(CN2CCC[C@H](c3cc(O)ncn3)C2)c1C	-5	0.5
COc1ccc(OC)c2c1cc(C(=O)Nc1nnc(C)s1)n2C	-21	2.57
COC[C@@]12CCN(S(=O)(=O)Cc3ccccc3)C[C@@H]1CN(S(C)(=O)=O)C2	-19	2.25
O=C(c1ccns1)N(Cc1ccccc1)CC1(O)CCOCC1	-5	0.88
C[C@](O)(CCc1ccccc1)C(=O)Nc1ncccc1O	-2	0.26
CCc1n[nH]c(C)c1-c1ccc2c(c1)OCCO2	-6	0.87
Clc1ccc(-c2nc3cnccn3c2Nc2ccc3c(c2)OCCO3)s1	-18	1.8
COCC1(CNc2cc(OC)nc(N)n2)CCCC1	-1	0.14
O=C(c1c(F)cccc1F)N1CCN(Cc2nc(C3CC3)no2)CC1	4	-0.6
CCCc1nc(N2CCN(C(=O)Nc3cccc(F)c3)CC2)c2c(C)nn(-c3ccccc3)c2n1	10	-1.41
COCc1nc(CNC(=O)C2(C(F)(F)F)CCCCC2)cs1	-5	0.76
CN1CC[C@@]2(CCC1=O)CN(C(=O)OCc1ccccc1)CCN2C	-1	0.1
CC(C)c1ccc(NC(=O)[C@H]2CC(=O)N(c3cccc(C(=O)Nc4ccccc4)c3)C2)cc1	-16	1.53
Cc1ccc(-c2n[nH]c(=O)c3c2CCCC3)cc1S(=O)(=O)N1CCCC[C@@H]1C	10	-1.75
CC(C)(CN1CCOCC1)NC(=O)C[C@H]1CCCOC1	-10	1.35
CCn1cc(CN2CCC(C(=O)NCc3cc(OC)ccc3OC)CC2)c2cc(OC)ccc21	-10	1.62
COc1ncccc1C(=O)Nc1ccc2c(c1)CCC(=O)N2	-6	0.63
CCOc1cccc(CN2CCC(C)(c3noc(C4CCOCC4)n3)CC2)c1	-13	1.51
O=C(C[C@]1(c2cccc(F)c2)CC(=O)N(C2CCCC2)C1=O)N1CCC(O)(c2ccccn2)CC1	-14	1.89
Cc1ccc(NC(=O)C(=O)NCc2nc(C)no2)c(Cl)c1	-14	1.42
